# The whole screen tested about 190,000 compounds, of which about 400 (0.21%) were called active. The inconclusive results got no clear call from the source; some entries with a clear call stand among them for comparison.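 How the source made its calls: active means percent activity GTP binding at least 20 points away from the 100% baseline, either down as inhibitor or up as activator; inconclusive means compound flagged as likely green fluorescent from well-wide comparison; inactive means the rest.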
# Target: Cell division control protein 42 homolog (Homo sapiens) (UniProt P60953)
# Experiment: wildtype Cdc42 fluorescent GTP binding changes, either direction – biochemical, multiplex bead flow cytometry, Bodipy-GTP, primary screen (AID 761);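 further: median bead fluorescence of bound Bodipy-FL-GTP at 100 nM; 0% = excess unlabeled GTP control and 100% = no compound control; below 100% means less GTP binding so inhibitor and above means activator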
# Conditions: GST-Cdc42 beads, at 10 µM, actives lie on both sides
# Chain of UniProt P60953 (P60953 whole entry, looked up): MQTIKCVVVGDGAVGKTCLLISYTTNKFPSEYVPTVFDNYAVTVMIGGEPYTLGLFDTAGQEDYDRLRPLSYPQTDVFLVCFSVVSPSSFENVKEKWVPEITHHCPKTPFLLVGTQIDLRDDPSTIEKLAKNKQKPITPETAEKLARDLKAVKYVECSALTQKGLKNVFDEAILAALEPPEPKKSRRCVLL
row,Structure (SMILES),percent activity (GTP binding)
1,O=c1n(Cc2ccc(Cl)cc2)c2sc3c(c2c2ncnn12)CCCC3,inconclusive: 73%
2,Nc1c(C(=O)NCc2ccco2)c2nc3ccccc3nc2n1CCc1ccc(F)cc1,inconclusive: 104%
3,ClCC1CN(Cc2ccccc2Cl)CCO1 (centres undefined),inactive: 95%
4,CCOc1ccc2cc(/C=C/C(=O)c3ccco3)c(Cl)nc2c1,inconclusive: 115%
5,Cc1ccc(C(=O)N2CCOCC2)c(F)c1F,inactive: 97%
6,COc1cccc(C(=O)Nc2cccc(C(=O)NCC(C)C)c2)c1,inactive: 104%
7,Cc1nc(-c2ccccc2)sc1C(=O)NN,active: 125% [activator]
8,Cc1ccc(C2=NN(S(C)(=O)=O)C(c3ccc4c(c3)OCO4)C2)cc1 (centres undefined),inconclusive: 105%
9,COc1ccc(NC(=O)c2cc(-c3ccc(C)o3)nc3ccccc23)cc1OC,inconclusive: 95%
10,Fc1ccc(Nc2nc3ccccc3s2)cc1,inconclusive: 92%
11,Cc1nn(CCCC(=O)N2CCN(c3ccc(F)cc3)CC2)c(C)c1[N+](=O)[O-],inconclusive: 96%
12,O=C1CCCN1CCCNc1ncnc2sccc12,inactive: 99%
13,COC(=O)C1=C(C)Nc2c(c(=O)n(C)c(=O)n2C)C1c1ccc(C)cc1 (centres undefined),inconclusive: 91%
14,O=C(NC1CCCCC1)C(Cc1ccccc1)N1C(=O)C2C3CCC(C3)C2C1=O (centres undefined),inconclusive: 112%
15,Cc1cccc(NC(=O)N2CCCC2C(=O)Nc2ccccc2)c1 (centres undefined),inconclusive: 93%
16,CCCn1c(=O)c(C(=O)Nc2ncccc2C)c(O)c2ccccc21,inconclusive: 86%
17,Cc1ccc(Nc2ccc(C(F)(F)F)cc2[N+](=O)[O-])cc1,inconclusive: 90%
18,OC(CNCCc1ccc(Cl)cc1)COc1ccc2ccccc2c1 (centres undefined),active: 77%
19,Cc1cc(C(=O)Oc2ccccc2C(=O)O)c(C)o1,active: 120% [activator]
20,C/C(=C\c1ccccc1)C(=O)Nc1ccc(S(=O)(=O)Nc2ncccn2)cc1,inactive: 93%
21,CCCCC(=O)Nc1cc(N(C)C)nc2ccccc12,inconclusive: 90%
22,Cc1ccc(SCC(=O)NC(=O)Nc2ccc3c(c2)OCCO3)cc1C,inconclusive: 95%
23,O=C(NCc1ccco1)c1cc2ccccc2o1,inconclusive: 92%
24,COc1ccc(-c2coc3cc4oc(=O)cc(C)c4cc23)cc1F,inconclusive: 97%

row,Structure (SMILES),percent activity (GTP binding)
1,Cc1ccc(C)c(NC(=S)NC(NC(=O)N(C)C)C(Cl)(Cl)Cl)c1 (centres undefined),inconclusive: 100%
2,Cc1ccccc1Cn1cc(NC(=O)c2noc3c2CC(C(C)(C)C)CC3)cn1 (centres undefined),inconclusive: 116%
3,Cc1ccc(NC(=O)CCOc2ccccc2)cc1S(=O)(=O)Nc1ccccc1Cl,inconclusive: 90%
4,CC(=O)c1cc2c(cc1NC(=O)c1cccc(S(=O)(=O)N3CCN(C)CC3)c1)OCO2,inactive: 83%
5,O=c1nc2c(O)cccn2c2c1c(=O)[nH]c1ccccc12,active: 70%
6,O=C(/C=C/c1ccccc1)NC(NC(=S)Nc1ccc(C(=O)O)cc1)C(Cl)(Cl)Cl (centres undefined),inactive: 96%
7,COc1ccc(CNC(=O)CN(C)S(=O)(=O)c2ccc(Cl)cc2)cc1,inconclusive: 97%
8,COCCNC(=O)/C(C#N)=C/C=C/c1ccccc1[N+](=O)[O-],inconclusive: 95%
9,CCc1c(O)nc(SCC(N)=O)n(-c2ccccc2F)c1=O,inconclusive: 106%
10,CCOc1ccccc1NC(=O)c1cc(Cl)ccc1NC(=O)c1ccco1,inconclusive: 104%
11,COc1ccc(CC(=O)Nc2cc(=O)n(C)c(=O)n2C)cc1,inconclusive: 106%
12,COc1ccc(CN(C)C2CCCCC2)c(C)c1C,inconclusive: 105%
13,O=C1CC(c2ccc(F)cc2)Sc2ccccc2N1 (centres undefined),inactive: 116%
14,COc1ccc(/C=N/OCC(=O)N=Nc2c(O)[nH]c3ccc(Br)cc23)cc1OC,inconclusive: 94%
15,O=C(NCC1OCCc2ccccc21)c1cc(COc2c(F)cccc2F)on1 (centres undefined),inconclusive: 85%
16,Cc1cc(=O)[nH]c2c(N=Nc3ccc(O)cc3)c(N)nn12,active: 60%
17,COc1ccc2cc(/C=N/NC(=O)c3ccc(CN(c4cccc(Cl)c4Cl)S(C)(=O)=O)cc3)c(Cl)nc2c1,inactive: 99%
18,COc1cc2[nH]c(=S)nc(NC3CCCCCC3)c2cc1OC,active: 69%
19,COc1ccc(CCNc2c([N+](=O)[O-])c(=O)oc3ccccc23)cc1OC,inconclusive: 107%
20,CCSc1nnc(NC(=O)[C@@H](NC(=O)c2ccccc2F)C(C)C)s1,inconclusive: 156%
21,COc1cc(CC(=O)OCC(=O)Nc2cccc([N+](=O)[O-])c2)cc(OC)c1OC,inactive: 100%
22,COc1ccc(N(C)C2=NS(=O)(=O)c3ccccc32)cc1,inactive: 101%
23,COc1ccc(C(=O)c2nccc3ccccc23)cc1,inactive: 95%
24,COc1ccc(/C=N/NC(=O)OC(C)(C)C)cc1OC,inactive: 100%

row,Structure (SMILES),percent activity (GTP binding)
1,O=C(Nc1cccc(Cl)c1N1CCCC1)c1ccc(Br)o1,inconclusive: 104%
2,CC(=O)Nc1ccc(NC(=O)COC(=O)c2ccco2)cc1,inconclusive: 90%
3,COc1ccc(/C=N/Nc2cc(C)nc(-n3nc(C)cc3C)n2)c(OC)c1,inconclusive: 91%
4,Cc1ccc(C)c(OCCn2cc(/C=C(\C#N)C(=O)NCc3ccco3)c3ccccc32)c1,inactive: 99%
5,CCOC(=O)N1CCC2(CC1)C(C#N)=C(N)Oc1c2c(C)nn1-c1cccc(Cl)c1,inconclusive: 92%
6,CCOc1ccc(NC(=O)c2cc3c(=O)n(C)c4ccccc4c3n2C)cc1,inactive: 102%
7,CS(=O)(=O)N1CCC(C(=O)N2CCN(C(c3ccccc3)c3ccccc3)CC2)CC1,inactive: 98%
8,CCOc1ccc(C(=O)NCc2ccco2)cc1,inconclusive: 109%
9,Cc1nc2sc(C(c3ccc(Cl)cc3)N3CCN(C(=O)c4ccco4)CC3)c(O)n2n1 (centres undefined),inconclusive: 102%
10,COc1cc(/C=C/C(=O)OCC(=O)NC(=O)NC23CC4CC(CC(C4)C2)C3)ccc1OCC#N,inactive: 95%
11,COc1cccc(OCCNC(=O)c2cc([N+](=O)[O-])cc([N+](=O)[O-])c2)c1,inconclusive: 89%
12,O=C(O)c1ccc(/C=N/NC(=O)c2cc(-c3ccc4c5c(cccc35)CC4)n[nH]2)cc1,active: 78%
13,COc1cc(N2CCOCC2)ncn1,inconclusive: 106%
14,Cc1ccc(S(=O)(=O)N2CCCCC2)cc1NC(=O)CSc1nnc(N)s1,inconclusive: 95%
15,Cc1nn(CC(=O)Nc2cc(S(=O)(=O)N(C)C)ccc2Cl)c(C)c1[N+](=O)[O-],inconclusive: 100%
16,Cc1nc(N2CCN(c3ccccn3)CC2)c2c(C)c(C(=O)Nc3ccc(F)cc3F)sc2n1,inconclusive: 88%
17,CCC(C)(C)NC(=O)CN(Cc1cccs1)C(=O)CCC(=O)Nc1nccs1,inconclusive: 106%
18,CN(C)S(=O)(=O)c1cc(NC(=O)CN2CCN(c3ccccc3F)CC2)ccc1Cl,inactive: 93%
19,CC1SC(C)C(=O)N(CC(=O)NC2CCCCC2)C1=O (centres undefined),inactive: 95%
20,CC(C(=O)Nc1ccccc1-c1ccccc1)N1CCCCC1 (centres undefined),inconclusive: 106%
21,COc1cc(-c2nnc(SCC(=O)N(C)C3CCS(=O)(=O)C3)o2)cc(OC)c1OC (centres undefined),inconclusive: 91%
22,Cc1ccc(C(=O)NC(=S)NCc2ccco2)cc1,inconclusive: 94%
23,COc1cc2c(cc1NC(=O)COC(=O)Cn1cnc3ccccc31)oc1ccccc12,inconclusive: 93%
24,O=C(NCCCn1ccnc1)c1noc2c1CCCC2,inconclusive: 105%

row,Structure (SMILES),percent activity (GTP binding)
1,COc1ccccc1Nc1nnc(SCC(=O)NC(=O)Nc2ccc3c(c2)OCCO3)s1,inconclusive: 104%
2,O=[N+]([O-])c1cc(Br)c(O)c(C=Nc2ccc(N3CCOCC3)cc2)c1,active: 79%
3,O=C1Nc2ccccc2SC(c2ccccc2)C1O (centres undefined),inconclusive: 105%
4,CCS(=O)(=O)N1CCN(c2ccc([N+](=O)[O-])c(NCc3cccnc3)c2)CC1,inconclusive: 95%
5,COc1cc(/C=C2\C(=O)ON=C2c2ccccc2)cc(Cl)c1O,inconclusive: 89%
6,COc1ccc(NC(=O)c2c(SC)nsc2SC)cc1,inactive: 105%
7,Nc1[nH]n2c(=O)cc(-c3ccccc3)nc2c1N=Nc1ccccc1,inactive: 95%
8,Cn1c(=O)c([N+](=O)[O-])c(Cl)c2ccccc21,inactive: 92%
9,C/C(=C\c1ccccc1)C(=O)NCCc1ccccc1,inactive: 94%
10,CCCN=Cc1ccc(O)cc1,inactive: 90%
11,COc1cc(/C=N/NC(=O)c2sc(N)c(C#N)c2C)cc(Br)c1O,inconclusive: 82%
12,Cc1ccc(OCC(=O)Nc2cc(C(=O)O)cc(C(=O)O)c2)cc1C,inactive: 100%
13,c1ccc(CNCC2COc3ccccc3O2)cc1 (centres undefined),inconclusive: 105%
14,COc1ccccc1Nc1nc(C)cs1,inconclusive: 107%
15,O=C(NC(=S)Nc1cccnc1Cl)c1ccco1,inconclusive: 94%
16,Cc1ccc(-n2nc3cc(Cl)c(NC(=O)c4ccco4)cc3n2)cc1,inconclusive: 108%
17,COc1ccccc1/C=N/NC(=O)CCn1cnc2ccccc21,inconclusive: 102%
18,CCOc1cc(S(=O)(=O)NC2CCCCC2)ccc1F,inconclusive: 84%
19,O=C(c1cccc(F)c1)N1CCN(S(=O)(=O)c2ccccc2)CC1,inconclusive: 108%
20,CCCCNC(=O)CSc1nc2ccccc2c(=O)n1CCNC(C)=O,inconclusive: 107%
21,C/C(=N\Nc1nc2c(s1)CCCC2)c1ccccc1,inconclusive: 107%
22,O=C(NC1CCCC1)C(c1ccco1)N(Cc1ccccc1)C(=O)c1csnn1 (centres undefined),inconclusive: 91%
